# About 530 (0.13%) of roughly 410,000 compounds were called active. The inconclusive results got no clear call from the source; some entries with a clear call stand among them for comparison. The call rests on the fitted dose curve; in most records, active means well fitted inhibition curve with a large enough effect; inconclusive means small, poorly fitted or top-dose-only effect, or another doubt; inactive means no such curve, though single readings can be large or run the other way. Where the call is inconclusive, the potency comes from a doubtful curve fit.
# Assay: qHTS of GLP-1 Receptor Inverse Agonists: Cytotox Screen
# Conditions: HEK293 cAMP-luciferase reporter cells, luminescence, 24 h; activity change, negative = inhibition: at 38.3 µM (top of the series) unless noted
# Method in brief: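 Seeding density was 200 cells/uL; after overnight-length (12 h) culture, 23 nL compounds went on for 24 h at 37 °C. Readout used a luciferase detection reagent, luminescence taken after 12 min at room temperature.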
# On the % scale 0 is the no-effect control and ±100 the full control effect; potency means the concentration at half of the fitted maximal effect.
SMILES,"activity change, negative = inhibition",Potency
O=S(=O)(NCC(c1ccco1)S(=O)(=O)c1ccccc1)c1cc(F)ccc1F (stereo unspecified),inactive: 6.56%,–
Cc1cccc(-c2cc(C(=O)Nc3cccnc3)c3ccccc3n2)c1,–,"inconclusive: 20 µM [inhibitor, single point]"
C=CC[C@H](CC(=O)N(CCO)Cc1ccccc1)C(=O)N[C@H](COC(=O)[C@@H](CC=C)CC(=O)OC(C)(C)C)Cc1ccccc1,–,"inconclusive: 12.6 µM [inhibitor, single point]"
O=C(NCCc1ccccc1)c1c(O)c2ccccc2[nH]c1=O,inactive: -7.15%,–
COc1cnc(-c2ccccn2)nc1NC(C)C,–,"inconclusive: 2.82 µM [inhibitor, partial curve, poor fit]"
CN[C@H]1C[C@H]2c3[nH]c4ccc(-c5ccc(OC)cc5)cc4c3CCN2C(=O)[C@H]1[C@H](C)O,–,"inconclusive: 28.2 µM [inhibitor, single point]"
COc1cccc(/C=N/Nc2nc3ccccc3[nH]2)c1O,–,"inconclusive: 0.501 µM [inhibitor, full curve, poor fit]"
O=C(COC(=O)c1ccccc1C(=O)c1ccc(Cl)c([N+](=O)[O-])c1)NC1CC1,–,"inconclusive: 12.6 µM [inhibitor, single point]"
COc1ccccc1CNC(=O)CN1C(=O)NC2(CCCCCC2)C1=O,inactive: 4.98%,–
O=C(NCc1ccccc1F)C12CC3CC(CC(C3)C1)C2,inactive: 7.45%,–
CC(=O)c1ccc2c(c1)C1C=CCC1C(C(=O)O)N2 (stereo unspecified),inactive: -9.95%,–
Cc1cc(C)cc(C(=O)N(Cc2ccco2)c2c(N)n(Cc3ccccc3)c(=O)[nH]c2=O)c1,inactive: -15.7%,–
Cc1ccccc1CN1CCC(CNC(=O)c2cc3ccc4cccnc4c3[nH]2)CC1,inactive: -26.7%,–
NC(=O)[C@@H]1CCNc2c(I)cc([N+](=O)[O-])cc2C(=O)N[C@@H](CCC(=O)O)C(=O)N[C@@H](CO)C(=O)N1,–,"inconclusive: 14.1 µM [inhibitor, single point]"
Cc1ccc(NC(=O)/C(=C/c2cccc([N+](=O)[O-])c2)NC(=O)C2CCCCC2)cc1,inactive: 1.37%,–
CCOC(=O)c1ccc(CN(Cc2ccc(F)cc2)S(=O)(=O)c2ccc(F)c(C(=O)Nc3ccc(Cl)cc3F)c2)cc1,inactive: -6.79%,–
O=C(Nc1ccc2c(c1)Cc1ccccc1-2)c1ccncc1,inactive: 2.19%,–
CC1CCC2C(=O)N(c3ccc(NC4CCCCC4)c([N+](=O)[O-])c3)C(=O)C2C1 (stereo unspecified),–,"inconclusive: 28.2 µM [inhibitor, single point]"
Cc1ccc(C=Nc2ccccc2C(N)=O)s1,–,"inconclusive: 3.16 µM [inhibitor, full curve]"
COc1cccc(Cn2c(CNS(=O)(=O)c3ccc(F)c(Cl)c3)nc3cccnc32)c1,inactive: -5.39%,–
Cc1ccc(S(=O)(=O)Nc2ccccc2/C=N/c2nc3ccccc3n2C)cc1,–,"inconclusive: 28.2 µM [inhibitor, single point]"
O=C(NC(=S)Nc1ccc(Cl)cc1Cl)C1CC1,–,"inconclusive: 10 µM [inhibitor, partial curve, poor fit]"

SMILES,"activity change, negative = inhibition",Potency
O=C(NC(=S)Nc1ccc2c(c1)OCCO2)c1ccc(F)cc1Cl,–,"inconclusive: 28.2 µM [inhibitor, single point]"
Cc1cccc(N2C(N)=C(C#N)C(C#N)(C#N)C2c2ccccc2)c1 (stereo unspecified),inactive: -16.9%,–
CCOc1ccccc1CNC(=O)c1cc(-c2ccc(Cl)s2)nc2ccccc12,inactive: -2.33%,–
C=C1C(=O)[C@]23C[C@H]1CCC2[C@]1(C)CCC[C@@](C)(C(=O)O)C1C[C@@H]3O (stereo partly specified),–,"inconclusive: 11.2 µM [inhibitor, partial curve, poor fit]"
Cc1cccc(NC(=S)NC(=O)c2ccc(Br)o2)c1,–,"inconclusive: 7.08 µM [inhibitor, partial curve, poor fit]"
CCOc1ccc(C(=O)Nc2nnc(C3=COCCO3)o2)cc1,–,"inconclusive: 20 µM [inhibitor, single point]"
Oc1c(N=NC(=S)Nc2ccccc2F)c2ccccc2n1Cc1cccc(Cl)c1,–,"inconclusive: 12.6 µM [inhibitor, single point]"
CN(CCCNC(=O)c1cc2c(Cl)nc3ccccc3c2s1)Cc1ccccc1,–,"inconclusive: 11.2 µM [inhibitor, partial curve, poor fit]"
Cc1cccc(NC2=NC(=S)N(c3ccc(C(=O)O)cc3)C23CCCCC3)c1,inactive: 5.06%,–
Cc1cccc(N(CC(O)Cn2c3ccccc3c3ccccc32)S(=O)(=O)c2ccc(F)cc2)c1 (stereo unspecified),–,"inconclusive: 28.2 µM [inhibitor, single point]"
CC1CCCN(S(=O)(=O)c2ccc(NC(=O)c3cccc(-n4cnnn4)c3)cc2)C1 (stereo unspecified),–,"inconclusive: 28.2 µM [inhibitor, single point]"
O=C(NC(=S)N1CCOCC1)c1cc2ccccc2o1,–,"inconclusive: 5.62 µM [inhibitor, full curve, poor fit]"
Cc1ccc(C(=O)NC(=S)NCC2CCCO2)cc1Br (stereo unspecified),–,"inconclusive: 22.4 µM [inhibitor, partial curve, poor fit]"
COc1cc([N+](=O)[O-])cc(CN2CCCCC2)c1O,–,"inconclusive: 11.2 µM [inhibitor, single point]"
CCc1nc2ccc(C(=O)Nc3cc(-c4ccccc4)ccc3OC)cn2c1N(CCN(C)C)CC1CC1,–,"inconclusive: 22.4 µM [inhibitor, single point]"
Cc1ccc(-c2ccc(=O)n(CC(=O)NCCN(CC(C)C)CC(C)C)n2)cc1,–,"inconclusive: 28.2 µM [inhibitor, single point]"
C/C(=C\C=C(C#N)C#N)c1cc(C#N)c(N)o1,–,"inconclusive: 22.4 µM [inhibitor, single point]"
COCCN(C(=O)COC(=O)/C=C/c1ccc2ccccc2n1)c1c(N)n(Cc2ccccc2)c(=O)[nH]c1=O,–,"inconclusive: 28.2 µM [inhibitor, single point]"
CCOC(=O)c1ccc(N2C(=O)c3n[nH]c(C)c3C2c2cccc(Br)c2)cc1 (stereo unspecified),–,"inconclusive: 11.2 µM [inhibitor, single point]"
COc1cccc(CNc2nc(NCc3ccccc3OC)nc3ccsc23)c1,–,"inconclusive: 28.2 µM [inhibitor, single point]"
COc1ccc(-n2c3c(cc(-c4nc(-c5ccc(C)cc5)cs4)c2=O)C(=O)CC(C)(C)C3)cc1,inactive: -2.03%,–
O=C1/C(=C/c2cccc(Cl)c2)SC(=S)N1CCC(=O)N1CCCCC1CCO (stereo unspecified),–,"inconclusive: 20 µM [inhibitor, single point]"

SMILES,"activity change, negative = inhibition",Potency
COc1ccc(CN(C(=O)c2cccs2)C(C(=O)NC2CCCCC2)c2ccc3ncccc3c2)cc1 (stereo unspecified),–,"inconclusive: 3.98 µM [inhibitor, full curve]"
Cc1cccc(N2CCN(C(=S)Nc3ccc4nc(N5CCN(C)CC5)cc(C)c4c3)CC2C)c1 (stereo unspecified),–,"inconclusive: 28.2 µM [inhibitor, single point]"
O=C(CSc1nnc(Cc2cc(=O)[nH]c(=O)[nH]2)n1-c1ccc(Cl)cc1)NCC1CCCO1 (stereo unspecified),–,"inconclusive: 28.2 µM [inhibitor, single point]"
Cc1ccc(-n2nnnc2SCC(=O)Nc2cc(C)on2)c(C)c1,–,"inconclusive: 2.51 µM [inhibitor, partial curve, poor fit]"
CCn1c2ccccc2c2cc(NC(=O)c3cc(OC)c(OC)c(OC)c3)ccc21,–,"inconclusive: 0.316 µM [inhibitor, full curve, poor fit]"
Cc1ccc(CN=C(N)Nc2nc(C)cc(C)n2)cc1,–,"inconclusive: 11.2 µM [inhibitor, partial curve, poor fit]"
COc1ccc(-n2nc(C(=O)NCC(=O)Nc3cc(C)ccc3OC)c3ccccc3c2=O)c(OC)c1,inactive: -1.03%,–
O=C1[C@@H]2C(c3cccnc3)=NO[C@@H]2C(=O)N1c1ccc2ccccc2c1,–,"inconclusive: 10 µM [inhibitor, single point]"
CC(=O)Nc1ccc(Sc2ccc([N+](=O)[O-])o2)cc1,–,"inconclusive: 8.91 µM [inhibitor, partial curve, poor fit]"
O=c1c(Cl)cc(Cl)nn1-c1ccccc1,–,"inconclusive: 10 µM [inhibitor, partial curve, poor fit]"
O=C(Cn1nnc(-c2ccccc2F)n1)Nc1ccc2c(c1)OCO2,–,"inconclusive: 22.4 µM [inhibitor, single point]"
COc1cccc2c1C(=O)c1c(O)c3c(c(O)c1C2=O)CC(O)(C(=O)CO)CC3OC1CC(N(C)C)C(O)C(C)O1 (stereo unspecified),–,"inconclusive: 1 µM [inhibitor, full curve, poor fit]"
CC(=O)Nc1ccc2c(c1Br)Cc1ccccc1-2,inactive: 8.41%,–
Cc1cc(-c2csc(NC(=O)c3ccc(S(=O)(=O)N(C)C)cc3)n2)c(C)n1-c1ccccc1,inactive: -14.3%,–
Cc1ccccc1CNC(=O)C(C)n1nc(C)n2c(cc3occc32)c1=O (stereo unspecified),inactive: 3.22%,–
CCCCCOc1ccc(C(=O)OCC(=O)Nc2cc(C)on2)cc1,inactive: 11.2%,–
Cc1cc(C)nc(N2CCCC(C(=O)NC3CCCC3)C2)n1 (stereo unspecified),inactive: 3.23%,–
COc1cccc(Nc2ccc([N+](=O)[O-])c3nonc23)c1,–,"inconclusive: 17.8 µM [inhibitor, single point]"
CC(C)(C)Nc1nc(-c2ccccn2)nc2ccccc12,–,"inconclusive: 0.501 µM [inhibitor, full curve, poor fit]"
Cc1ccccc1OCC(=O)OCC(=O)NC1CCCC(C)C1C (stereo unspecified),inactive: 6.75%,–
CSCCC(=O)NC1CC(C)(C)Cc2c1cnn2-c1ccccc1C (stereo unspecified),inactive: 0.522%,–
COc1ccc(OC)c(S(=O)(=O)N2CCC(C(=O)Nc3cccc(C(F)(F)F)c3)CC2)c1,–,"inconclusive: 31.6 µM [inhibitor, single point]"

# Reference: PubChem BioAssay AID624418 (National Center for Advancing Translational Sciences (NCATS), 2012)
